In publication PMC4336329 (PLoS ONE, 2015):
Out of some 310,000 compounds screened, about 2,200 (0.71%) showed an effect of 50% or more. The effect is printed as a negative number. This is one part of the list.

The molecules below were run against human ether-à-go-go-related gene (hERG) potassium channel (human, UniProt Q12809) (assay: primary screen, population patch clamp on CHO cells stably expressing hERG).
Sequence of human ether-à-go-go-related gene (hERG) potassium channel (Q12809 whole entry, looked up): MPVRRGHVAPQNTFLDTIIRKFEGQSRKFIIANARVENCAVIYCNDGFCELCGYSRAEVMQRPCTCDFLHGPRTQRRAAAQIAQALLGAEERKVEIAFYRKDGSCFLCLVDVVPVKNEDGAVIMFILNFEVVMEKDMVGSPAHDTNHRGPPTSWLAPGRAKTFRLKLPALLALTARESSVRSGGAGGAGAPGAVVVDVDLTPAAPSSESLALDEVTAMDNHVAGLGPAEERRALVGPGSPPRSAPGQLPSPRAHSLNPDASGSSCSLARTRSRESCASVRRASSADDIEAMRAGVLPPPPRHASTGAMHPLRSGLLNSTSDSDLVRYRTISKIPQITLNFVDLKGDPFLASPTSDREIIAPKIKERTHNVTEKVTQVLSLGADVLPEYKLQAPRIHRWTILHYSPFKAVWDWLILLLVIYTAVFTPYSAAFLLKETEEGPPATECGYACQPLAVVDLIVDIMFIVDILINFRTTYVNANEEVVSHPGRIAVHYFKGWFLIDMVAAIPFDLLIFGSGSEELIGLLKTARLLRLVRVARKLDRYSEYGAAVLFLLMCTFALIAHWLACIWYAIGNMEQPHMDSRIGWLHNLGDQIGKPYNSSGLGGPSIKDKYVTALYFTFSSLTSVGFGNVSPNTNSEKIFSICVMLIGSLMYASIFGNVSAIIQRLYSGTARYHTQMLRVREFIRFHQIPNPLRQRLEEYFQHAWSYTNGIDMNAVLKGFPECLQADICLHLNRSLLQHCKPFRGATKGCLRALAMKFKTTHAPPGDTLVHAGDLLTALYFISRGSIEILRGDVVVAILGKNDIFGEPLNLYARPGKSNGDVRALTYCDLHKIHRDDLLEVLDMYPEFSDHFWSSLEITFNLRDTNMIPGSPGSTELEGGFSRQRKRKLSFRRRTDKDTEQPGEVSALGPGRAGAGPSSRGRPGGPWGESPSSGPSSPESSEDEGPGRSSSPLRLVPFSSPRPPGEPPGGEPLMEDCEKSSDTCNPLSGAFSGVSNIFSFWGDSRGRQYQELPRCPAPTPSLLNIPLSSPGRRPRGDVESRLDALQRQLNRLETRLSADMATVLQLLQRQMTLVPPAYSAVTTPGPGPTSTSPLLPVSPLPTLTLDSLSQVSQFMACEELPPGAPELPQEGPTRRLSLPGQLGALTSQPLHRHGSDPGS

SMILES	hERG current change (%, negative = inhibition) at 1uM [%]
CC(=O)Nc1ccc(S(=O)(=O)NNC(=O)COc2cccc(C)c2)cc1	15.7
Cc1cc2oc(C(=O)N(Cc3cccs3)C3CCS(=O)(=O)C3)cc(=O)c2cc1Cl (stereo not shown)	5.61
COc1ccc(CCNC(=O)c2c(C)nn(-c3ccccc3)c2Cl)cc1	5.45
CCCCCCC1CC(C)(/C(C)=N/NC(N)=O)OC1=O (stereo not shown)	-18.1
CCNC(=O)CSc1ncnc2sccc12	1.77
O=C(Cn1cc(C(F)(F)F)ccc1=O)Nc1cccc(S(=O)(=O)N2CCOCC2)c1	0.507
COc1ccc(-c2csc(N(CCCN(C)C)C(=O)c3ccc(F)cc3)n2)cc1.Cl	-7.25
COc1ccc(CN(CC(=O)NCc2ccccc2)C(=O)CCC(=O)Nc2ccccn2)cc1	-14.2
Cc1cccc(-c2ccc3ncnc(NCc4cccnc4)c3c2)c1	4.75
O=C(CN1CCN(S(=O)(=O)N2CCCCC2)CC1)Nc1cc(Cl)ccc1Cl	12.5
Cc1ccc(-n2nnnc2SCC(=O)NNC(=O)c2ccc([N+](=O)[O-])cc2)cc1	11.1
COc1cccc(C(C)NC(=O)C2CCCO2)c1 (stereo not shown)	11.5
O=C(NCCC1=CCCCC1)C1CCC(=O)N(Cc2ccc(Cl)cc2)C1 (stereo not shown)	13.2
NC(=O)CCC(=O)N1CCCC(C(=O)c2ccc(C(F)(F)F)cc2)C1 (stereo not shown)	5.3
CCC(CC)c1nnc(NC(=O)CN2C(=O)NC3(CCCC3)C2=O)s1	9.54
OCC1(Cc2ccc(Cl)cc2)CCN(CC2CC=CCC2)CC1 (stereo not shown)	-41.6
N#CC1=C(N)Oc2cc(N)ccc2C1C1CC=CCC1 (stereo not shown)	-5.53
COc1cc(C#Cc2ccc3cc(CCCO)oc(=O)c3c2)cc(OC)c1	11
O=C(c1ccc(N2CCN(C(=O)c3ccccc3)CC2)cc1)c1cccc(F)c1	-18.3
CC(C)Oc1ccc(Cn2c(=O)oc3ccccc32)cc1	14.6
Cc1ccc(C(=O)Nc2ccccc2C(=O)N2CC3(C)CC2CC(C)(C)C3)cc1 (stereo not shown)	16
Cc1ccc(Oc2nc3ccccn3c(=O)c2/C=C(\C#N)C(=O)NC2CCS(=O)(=O)C2)cc1 (stereo not shown)	11.3
O=C(NNc1nc2cc3c(cc2s1)OCO3)c1ccccc1	13.3

SMILES	hERG current change (%, negative = inhibition) at 1uM [%]
COc1ccc(/C=C/C(=O)c2c(O)n(CCC3=CCCCC3)c(=O)[nH]c2=O)cc1	10.8
Cn1c2c(c(=O)n(C)c1=O)C(CC(=O)Nc1ccccc1)C(=O)N2 (stereo not shown)	3.9
COc1ccc2cc(-c3ccsc3)ncc2c1	12.2
COc1cccc(/C=N/NC(=O)c2ccoc2C)c1O	4.73
O=C(COC(=O)c1cncc(Br)c1)NC1CC1	3.48
Cc1cc(C)c(S(=O)(=O)N(C)CC(=O)NCCCn2ccnc2)c(C)c1	-4.47
CCc1nn(CC(=O)NCCCN(C)Cc2ccccc2)c(=O)c2cc3sc(C)cc3n12	-47
Cc1ccccc1OCC(O)CN1CCC(C)CC1.Cl (stereo not shown)	-6.73
C/C(CCc1ccc2c(c1)OCO2)=N\NC(=S)NC(C)C	-33.9
CN(C)CCNC(=O)C1(O)c2cc(Br)ccc2NC(=O)N1c1ccc(Cl)cc1 (stereo not shown)	15.2
O=C1CCC([N+](=O)[O-])C(c2ccccc2C(F)(F)F)N1 (stereo not shown)	12.7
Cc1nc2ncnn2c(C)c1CCC(=O)NCc1ccc2c(c1)OCO2	-13.5
Cc1ccc(OCC(=O)c2cc(C)c(C)cc2C)c([N+](=O)[O-])n1	10.5
Cc1ccnc(N(C(=O)Nc2ccccc2)C2=NCC(C)(C)S2)c1	9.87
CCN1C(=O)C(CC(=O)Nc2ccc(OC)cc2)N(Cc2cccnc2)C1=S (stereo not shown)	-11.1
COc1cccc(C(=O)Nc2ccc3c(c2)OCO3)c1OC	9.88
Cc1ccc(NC(=O)C2CCCN2C(=O)NC2CCCCC2)cc1 (stereo not shown)	0.103
Cc1cc(C(=O)NCC(=O)O)c(C)o1	10.7
Cc1ccccc1-c1nnn(CC(=O)N(C)CC(=O)Nc2ccccc2C(F)(F)F)n1	1.4
CC(C)(C)P(=O)(CO)c1ccccc1 (stereo not shown)	2.82
CCOc1ccccc1NC(=O)COC(=O)CNS(=O)(=O)c1ccc(C)cc1	17
O=C(Cn1c(=O)n(CC(=O)NCc2ccccc2)c2ccccc21)NCc1ccccc1	15.6
O=C1CCC(=O)N1CNc1cccnc1	-7.39
